The record followed here is the BET-seq Pho4 binding data (Le et al. 2018).

This is one part of the list. These are noisy estimates, calculated here from bound and input reads.

In the test the target is T1, Pho4 (S. cerevisiae) (UniProt P07270).
T1 sequence: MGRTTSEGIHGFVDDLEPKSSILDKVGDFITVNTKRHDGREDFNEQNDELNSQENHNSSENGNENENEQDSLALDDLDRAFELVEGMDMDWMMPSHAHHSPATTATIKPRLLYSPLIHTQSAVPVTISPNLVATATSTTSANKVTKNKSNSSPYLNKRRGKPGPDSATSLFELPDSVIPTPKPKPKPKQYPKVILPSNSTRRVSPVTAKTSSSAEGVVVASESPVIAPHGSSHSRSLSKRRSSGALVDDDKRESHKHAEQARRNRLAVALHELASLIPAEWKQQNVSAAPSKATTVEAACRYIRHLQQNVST
The test can be described thus: relative binding free energy (BET-seq); higher = weaker binding. The note with it: reference: library average.
For the sequence GGGGACACGTGCGTTT, the “relative binding free energy” value worked out at 0.04 kcal/mol.
The result for CGGTGCACGTGTGTTC reads 0.08 kcal/mol; that for TGTCTCACGTGGTCTG, 0.17 kcal/mol.
For the sequence TTGATCACGTGGTAAT, the “relative binding free energy” value was 0.23 kcal/mol.
On to ATGCGCACGTGGGCGA, for which the “relative binding free energy” value was -0.2 kcal/mol.
Take GTTTGCACGTGTTTAA: the “relative binding free energy” value turned out to be 0.05 kcal/mol.
As for GTAGACACGTGGGATT, the “relative binding free energy” value was -0.05 kcal/mol.
On to CGTTACACGTGTGGAG, for which the “relative binding free energy” value amounted to 0.11 kcal/mol.
The result for TGGTACACGTGCTTTA reads 0.01 kcal/mol; that for ACATGCACGTGGGCGG, -0.25 kcal/mol; that for TGGTTCACGTGTAGTG, 0.24 kcal/mol.
Turning to GCATTCACGTGTGATT, the “relative binding free energy” value stood at 0.39 kcal/mol.
As to GAGGACACGTGGGATA, the “relative binding free energy” value was -0.06 kcal/mol.
For the sequence AGTCACACGTGTGTGT, the “relative binding free energy” value is -0.06 kcal/mol.
With CAATGCACGTGGAGGT, the “relative binding free energy” value is -0.18 kcal/mol.
Take ATTCCCACGTGTGGGG: the “relative binding free energy” value was -0.04 kcal/mol.
In the case of ATGTTCACGTGGCGGC, the “relative binding free energy” value came to 0.21 kcal/mol.
For the sequence AGGGTCACGTGGTACT, the “relative binding free energy” value was -0.08 kcal/mol.
On to ACATGCACGTGTTGTT, for which the “relative binding free energy” value is -0.13 kcal/mol.
As for CGTTGCACGTGGAATT, the “relative binding free energy” value stood at 0.17 kcal/mol.
Take AATTGCACGTGATGGT: the “relative binding free energy” value worked out at 0.12 kcal/mol.
Next, TCTGTCACGTGGTAGT: 0.05 kcal/mol.
As for ATACACACGTGAGGTT, the “relative binding free energy” value came to 0.33 kcal/mol.
GGTGGCACGTGACGCT: the “relative binding free energy” value turned out to be 0.06 kcal/mol.
As for TCGGTCACGTGGGCAT, the “relative binding free energy” value was -0.02 kcal/mol.
In the case of TTAAGCACGTGAATTT, the “relative binding free energy” value is 0.29 kcal/mol.
Take AATTACACGTGTCTGT: the “relative binding free energy” value was 0.05 kcal/mol.
Next, GGTAGCACGTGTGGGG: 0.05 kcal/mol; GTGAGCACGTGAGTAA: 0.17 kcal/mol; TGTTGCACGTGGGCCT: -0.1 kcal/mol.
Next, AGGATCACGTGTGGGT: 0.2 kcal/mol; TAGGCCACGTGGCGGG: -0.17 kcal/mol; AGGGGCACGTGAGTTG: 0.15 kcal/mol.
As for TCATTCACGTGCGTGG, the “relative binding free energy” value was 0.16 kcal/mol.
As for CGGCGCACGTGGGGGC, the “relative binding free energy” value was -0.23 kcal/mol.
Take ATTATCACGTGAGTGT: the “relative binding free energy” value stood at 0.4 kcal/mol.
For CTCGGCACGTGAGGGG, the “relative binding free energy” value stood at 0.03 kcal/mol.
The result for GGCTACACGTGTGTGA reads 0.16 kcal/mol; that for TTTATCACGTGATGAT, 0.24 kcal/mol.
For the sequence GGTTTCACGTGTTATG, the “relative binding free energy” value came out at 0.35 kcal/mol.
Next, TGGTTCACGTGTTGCT: 0.21 kcal/mol; GGCGCCACGTGTAGTG: -0.01 kcal/mol; GAGAGCACGTGGATGT: -0.1 kcal/mol.
For TGGTCCACGTGAGTAT, the “relative binding free energy” value stood at 0.17 kcal/mol.
Next, GTGCGCACGTGTGTTG: -0.01 kcal/mol; GGTCCCACGTGGGATG: -0.14 kcal/mol.
Turning to TGTTACACGTGAGAGA, the “relative binding free energy” value was 0.24 kcal/mol.
Take TCGGACACGTGATTGG: the “relative binding free energy” value worked out at 0.3 kcal/mol.
Next, GGTAGCACGTGAAAGG: 0.18 kcal/mol; GCGGGCACGTGTGTGT: -0.06 kcal/mol; TGTGTCACGTGATGCT: 0.28 kcal/mol.
The result for GAGTTCACGTGCAGTG reads 0.25 kcal/mol; that for ATTTGCACGTGAGGTT, 0.28 kcal/mol.
Consider TAGTTCACGTGGAATG, for which the “relative binding free energy” value is 0.35 kcal/mol.
Consider ATAGTCACGTGTGCGG, for which the “relative binding free energy” value turned out to be 0.06 kcal/mol.
With ACGGGCACGTGTTGTA, the “relative binding free energy” value was -0.14 kcal/mol.
On to GGTGACACGTGTCTAT, for which the “relative binding free energy” value was found to be 0.27 kcal/mol.
The result for TGTTCCACGTGAGGTG reads 0.2 kcal/mol.
In the case of TTATGCACGTGGTTTG, the “relative binding free energy” value is -0.01 kcal/mol.
For TTAGCCACGTGAGTGG, the “relative binding free energy” value was found to be 0.24 kcal/mol.
The result for TCGTTCACGTGAGGGA reads 0.31 kcal/mol.
Consider AAAGACACGTGGGGCA, for which the “relative binding free energy” value is -0.04 kcal/mol.
Regarding TTTCTCACGTGTGCAT, the “relative binding free energy” value came to 0.21 kcal/mol.
Take TGAATCACGTGGGTGG: the “relative binding free energy” value stood at 0.09 kcal/mol.
GGGAGCACGTGGCGGT: the “relative binding free energy” value was -0.18 kcal/mol.
The result for TACGGCACGTGGGATA reads -0.07 kcal/mol.
In the case of GTTGGCACGTGAATCT, the “relative binding free energy” value worked out at 0.15 kcal/mol.
Turning to TTGCTCACGTGTTAGA, the “relative binding free energy” value was found to be 0.08 kcal/mol.
In the case of CGGTACACGTGTTTTG, the “relative binding free energy” value worked out at 0 kcal/mol.
Turning to ATTTACACGTGATGTG, the “relative binding free energy” value was 0.22 kcal/mol.
As for ACGTTCACGTGGATTT, the “relative binding free energy” value came to 0.17 kcal/mol.
Next, GGTATCACGTGGTAGA: 0.21 kcal/mol; TTTGTCACGTGTGAAG: 0.09 kcal/mol; ATTGTCACGTGACTGA: 0.19 kcal/mol.
Next, AAGAGCACGTGTAGTT: -0.07 kcal/mol; AGTGGCACGTGGGTGA: -0.21 kcal/mol; AGACGCACGTGGGGAA: -0.18 kcal/mol.
With GTCTTCACGTGTAAGG, the “relative binding free energy” value was 0.34 kcal/mol.
Take TACTGCACGTGATTGG: the “relative binding free energy” value came out at 0.28 kcal/mol.
Next, GGTCTCACGTGTGCTT: 0.19 kcal/mol.
Next, CCATGCACGTGATGGG: 0.17 kcal/mol; TGGCTCACGTGTTATA: 0.31 kcal/mol; GGGTTCACGTGTCGCT: 0.22 kcal/mol.
Next, TGCGTCACGTGGCGTT: 0.09 kcal/mol; AGGGACACGTGAGTGT: 0.17 kcal/mol; GATCACACGTGTGTGT: 0.24 kcal/mol.
With TAACTCACGTGGGAGG, the “relative binding free energy” value was determined as 0.24 kcal/mol.
Next, CTGCGCACGTGGTGGG: -0.23 kcal/mol; TGGGACACGTGTGGAT: 0.05 kcal/mol; TGGGCCACGTGGTATC: -0.02 kcal/mol.
Next, TAGCTCACGTGTGTGT: 0.26 kcal/mol.
As for TTAGGCACGTGTTCAA, the “relative binding free energy” value was -0.22 kcal/mol.
AGTATCACGTGTTGAG: the “relative binding free energy” value was determined as 0.1 kcal/mol.
On to TTTCTCACGTGGGGCG, for which the “relative binding free energy” value came out at 0.2 kcal/mol.
For GAATGCACGTGTGTTA, the “relative binding free energy” value came to 0.04 kcal/mol.
For the sequence CGGTGCACGTGGGCAG, the “relative binding free energy” value is -0.35 kcal/mol.
The result for GGATGCACGTGTTTAA reads 0.08 kcal/mol; that for TTTTGCACGTGGAAAA, 0.06 kcal/mol; that for GGATACACGTGTTATA, 0.05 kcal/mol.
Turning to ATTACCACGTGGGATT, the “relative binding free energy” value turned out to be 0 kcal/mol.
The result for TAGGTCACGTGGGGGG reads 0.03 kcal/mol; that for CATTGCACGTGGGCGT, -0.21 kcal/mol.
With TGGAGCACGTGGGGGA, the “relative binding free energy” value was -0.13 kcal/mol.
Regarding TGTGGCACGTGAAGAA, the “relative binding free energy” value was 0.2 kcal/mol.
In the case of ATTGGCACGTGAGCAT, the “relative binding free energy” value is 0.08 kcal/mol.
As for GTTGTCACGTGGGGTC, the “relative binding free energy” value came to 0.01 kcal/mol.
Next, CGGTTCACGTGCGCGG: 0.23 kcal/mol; TCGGCCACGTGAGTGT: 0.11 kcal/mol.
Turning to ATAGTCACGTGCTGGT, the “relative binding free energy” value is 0.06 kcal/mol.
The result for GAGTACACGTGGTATT reads 0.07 kcal/mol.
Turning to ATGTCCACGTGGGTTT, the “relative binding free energy” value was 0.1 kcal/mol.
As for GTAGGCACGTGGTCAA, the “relative binding free energy” value was -0.1 kcal/mol.
As for CAGTTCACGTGGTTGG, the “relative binding free energy” value stood at 0.28 kcal/mol.
Consider ATTAGCACGTGGATGG, for which the “relative binding free energy” value turned out to be 0.06 kcal/mol.
Regarding GCCGTCACGTGGGATG, the “relative binding free energy” value was 0.05 kcal/mol.
AATCGCACGTGTGTGA: the “relative binding free energy” value is 0.08 kcal/mol.
With TTGGGCACGTGTTCGG, the “relative binding free energy” value was -0.09 kcal/mol.
The result for TTATTCACGTGTCAGT reads 0.13 kcal/mol; that for AAGTGCACGTGAGATG, 0.11 kcal/mol.
As to GTCTACACGTGAGTTG, the “relative binding free energy” value was found to be 0.25 kcal/mol.
As for ATGTGCACGTGTTTGT, the “relative binding free energy” value was -0.08 kcal/mol.
Turning to TGTGCCACGTGGAATA, the “relative binding free energy” value was 0.18 kcal/mol.
Consider AATAACACGTGGTTGT, for which the “relative binding free energy” value was -0.07 kcal/mol.
On to TTGGACACGTGGGAGG, for which the “relative binding free energy” value turned out to be 0 kcal/mol.
As for TGGGTCACGTGCCAGG, the “relative binding free energy” value was determined as 0.08 kcal/mol.
Regarding GCTGGCACGTGATGAG, the “relative binding free energy” value turned out to be 0.08 kcal/mol.
As to GCGAACACGTGTGGGG, the “relative binding free energy” value is 0.14 kcal/mol.
Next, GTTTCCACGTGGTTGG: 0.16 kcal/mol.
With TAAATCACGTGGGAGT, the “relative binding free energy” value amounted to 0.07 kcal/mol.
Turning to TTTATCACGTGTTAAC, the “relative binding free energy” value is 0.12 kcal/mol.
GTTTTCACGTGAATTT: the “relative binding free energy” value worked out at 0.49 kcal/mol.
In the case of AGTTACACGTGTAAGT, the “relative binding free energy” value was found to be 0.13 kcal/mol.
The result for GAGTTCACGTGGGTTT reads 0.3 kcal/mol.
For the sequence AGTGACACGTGTGTGC, the “relative binding free energy” value was determined as 0.07 kcal/mol.
TAGTGCACGTGTTCGT: the “relative binding free energy” value was -0.05 kcal/mol.
For the sequence GGTGGCACGTGCGACG, the “relative binding free energy” value is -0.1 kcal/mol.
On to TTATCCACGTGCGTGG, for which the “relative binding free energy” value was -0.05 kcal/mol.
In the case of ATAGTCACGTGCATGT, the “relative binding free energy” value was found to be 0.07 kcal/mol.
Consider GTTTGCACGTGGCGAA, for which the “relative binding free energy” value was -0.05 kcal/mol.
Consider GTTCGCACGTGTCGTT, for which the “relative binding free energy” value was determined as 0.03 kcal/mol.
Consider ATGGTCACGTGATCTT, for which the “relative binding free energy” value was 0.3 kcal/mol.
As to TGAGTCACGTGATATG, the “relative binding free energy” value came out at 0.26 kcal/mol.
In the case of GGAGTCACGTGGATGT, the “relative binding free energy” value was 0.21 kcal/mol.
The result for ATGTACACGTGAGGAT reads 0.25 kcal/mol; that for TTTGGCACGTGGGGGT, -0.15 kcal/mol; that for GTGTCCACGTGTGGCG, 0.05 kcal/mol.
